Results published in PubChem BioAssay AID652106 (National Center for Advancing Translational Sciences (NCATS), 2013).
In all, about 370,000 compounds went through this assay and about 500 (0.14%) were called active. The shares of active, inactive and inconclusive entries below differ from those in the screen. Calls follow the shape of the dose curve; as a rule, active = well fitted activation curve with a large enough effect; inconclusive = small, poorly fitted or top-dose-only effect; inactive = no such curve, though single readings can be large or run the other way. Potencies of inconclusive entries are left out as doubtful fits.

experiment: qHTS of alpha-syn Inhibitors; settings: Yeast expressing alpha-synuclein, BacTiter-Glo, 24 h; Potency: growth rescue unless noted; growth rescue (activation): at 46.1 µM (top of the series) unless noted; also: nearly all actives have a fitted effect of over 65% in size; as to growth rescue (activation): % of control where 0% means no effect
How it was run: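 Galactose-induced alpha-syn yeast (OD600=0.02, raffinose-pregrown) + pinned cpd, 24 hr, 30 deg C; growth by BacTiter-Glo luminescence. Growth restoration scores as activation.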
Potency is read from the fitted curve at half-maximal effect; tags tell the direction and shape of the fitted curve.

| SMILES | Potency | growth rescue (activation) |
| --- | --- | --- |
| Cc1nc(SCC(=O)N2CCCC2=O)c2c(C)c(C)sc2n1 | inconclusive [activator, single point] | – |
| COc1ccc(NC(=O)CNc2cc(C)ccc2C)cc1S(=O)(=O)N1CCOCC1 | – | inactive: -8.4% |
| CN(CCc1ccccc1)C(=O)c1ccc(NC(=O)Cc2cccc(NC(=O)C3CCN(S(=O)(=O)c4cccc([N+](=O)[O-])c4)CC3)c2)cc1 | inconclusive [activator, single point] | – |
| CC1CCCC(C)N1S(=O)(=O)c1ccc(S(=O)(=O)N2CCOCC2)cc1 (centres undefined) | inconclusive [activator, single point] | – |
| COc1ccc(CC(=O)N(C)c2ccccc2)cc1S(=O)(=O)N1CCOCC1 | inconclusive [activator, single point] | – |
| CCOC(=O)CSc1nc(-c2ccccc2)nc2c1oc1ccccc12 | inconclusive [activator, single point] | – |
| NC(=S)N=Nc1ccc(O)cc1 | – | inactive: -15.4% |
| CC(C)c1ccc(CC(=O)N2CCC2(C)C(=O)NCc2cccc3ccccc23)cc1 (centres undefined) | inconclusive [activator, single point] | – |
| Cc1ccccc1Oc1ccc(S(=O)(=O)NCCC(=O)O)cc1 | inconclusive [activator, single point] | – |
| CCCC(=O)N(CCc1ccccc1)Cc1nc2ccccc2c(=O)[nH]1 | inconclusive [activator, single point] | – |
| O=C(Nc1ccc(Cl)cc1)C1Cc2c(-c3cccc(F)c3)ccnc2O1 (centres undefined) | inconclusive [activator, single point] | – |
| Cc1nn(-c2ccccc2)c(OC(=O)c2cccs2)c1S(=O)(=O)c1ccc([N+](=O)[O-])cc1 | – | inactive: -2.23% |
| NS(=O)(=O)c1ccc(N2N=C(c3ccccc3)CC2c2cccc(Cl)c2)cc1 (centres undefined) | inconclusive [activator, partial curve] | – |
| CCC(C)c1ccc(S(=O)(=O)N2CCN3CCCC3C2)cc1 (centres undefined) | – | inactive: -15.8% |
| Cc1cccc(C)c1NC(=O)C1=C(O)c2sccc2N(C)S1(=O)=O | inconclusive [activator, single point] | – |
| COCCCNC(=O)Cc1c(C)c2cc3c(cc2oc1=O)OC(C)(C)CC3 | – | inactive: 0.0773% |
| Oc1ccccc1C=NNC(=S)NC1CC2C=CC1C2 (centres undefined) | inconclusive [activator, single point] | – |
| Cc1cccc(C)c1NC(=O)CNC(=O)c1ccc2nc[nH]c2c1 | inconclusive [activator, single point] | – |
| CC1(C)C=Cc2c(c3c(c4c(=O)c(-c5ccc(O)cc5)coc24)OC(C)(C)CC3)O1 | – | inactive: 1.09% |
